Here are results for 172 sequences from article PMC10668032.

The other results are listed elsewhere or left out. At the low end of the ranking, values are background and their order means little.

The target of this test is SIX1-Q177R homeodomain (UniProt Q15475). The experiment in a line: universal protein binding microarray. Conditions: Universal all-10-mer PBM (8x60K, AMADID 030236), 300 nM GST-tagged protein, Alexa Fluor 488 anti-GST; buffer, salt, pH and temperature not stated; high values mean tight binding; most listed sequences are background and not binding sites; double strand, one strand shown.
In the case of GATCCAAC, the binding signal was 0.00762 E-score.
The figure for CTCGGGGA is 0.142 E-score; for CGAGCCGA it is -0.0446 E-score.
For the sequence ACTTCGGC, the binding signal was -0.0587 E-score.
As to GGGCTGGA, the binding signal was -0.0304 E-score.
The figure for ACGTAGAA is 0.0148 E-score; for CGCGTTCC it is 0.118 E-score; for ATACGATG it is -0.134 E-score.
As for GTCATGTA, the figure is 0.00121 E-score; as for AGAGGCAT, -0.118 E-score.
The figure for GCGTGCAA is 0.0566 E-score; for AAAGGGAT it is -0.0036 E-score; for CAGGACCA it is -0.155 E-score.
ATAATCAT: the binding signal is -0.0843 E-score.
The figure for AGTAAGGA is -0.118 E-score; for CAAGTAAC it is -0.139 E-score.
The figure for CGCTCAAG is -0.106 E-score; for ACAGACAT it is -0.333 E-score; for CTGTCGCC it is -0.206 E-score.
The figure for ACGCCGCG is 0.1 E-score; for CATGGGCA it is -0.0644 E-score.
Turning to ACGAGCCG, the binding signal is -0.0193 E-score.
The figure for AAATAATC is -0.196 E-score; for ATGGCGTA it is 0.0414 E-score.
With AAGGGCCA, the binding signal is -0.15 E-score.
As for CTGGACAA, the figure is -0.193 E-score; as for ATACTTTC, -0.069 E-score; as for CCAGGTTC, 0.00292 E-score.
The figure for GGCCACAC is 0.233 E-score.
For the sequence AAAGCAAG, the binding signal was -0.234 E-score.
For the sequence CAAGCCCA, the binding signal was found to be 0.0921 E-score.
As for TGAAATAA, the figure is -0.0774 E-score; as for AAACACTG, 0.344 E-score.
The figure for ATCTATTA is -0.0806 E-score.
The figure for AACGGAGG is -0.00318 E-score; for AGTCACAG it is -0.00583 E-score; for ATGAGCCC it is 0.00462 E-score.
Take GGGAAGGA: the binding signal is -0.0961 E-score.
The figure for ACTTTGGG is -0.0092 E-score.
The figure for AGGCGGTC is -0.0695 E-score.
The figure for GCGACCAC is -0.21 E-score; for CCCGTTTA it is 0.0712 E-score; for CTACAAAG it is -0.0566 E-score.
For the sequence ACTTATCG, the binding signal is -0.00777 E-score.
As for ACTCCCCG, the figure is 0.191 E-score; as for TATTGACA, 0.194 E-score.
Consider AGCAGTGG, for which the binding signal was -0.176 E-score.
Turning to ACATCCTG, the binding signal was -0.166 E-score.
The figure for TAGTAGAA is -0.0581 E-score.
For the sequence GGGCCCAC, the binding signal is -0.166 E-score.
The figure for ATGCGGGG is -0.106 E-score; for CATCGGGA it is 0.0149 E-score.
The figure for AGCCGCTG is -0.267 E-score.
The figure for ATTGTAGG is 0.0645 E-score; for AAGGTCAA it is -0.205 E-score; for CCGCCAAC it is -0.0039 E-score.
With CTCAGTCC, the binding signal is -0.224 E-score.
As for ACCCAAAT, the figure is 0.0109 E-score; as for TCATCCGA, -0.0314 E-score.
As for CCGCTTAG, the figure is -0.199 E-score; as for CAACTACC, 0.0976 E-score.
For the sequence GCGTACCA, the binding signal is -0.0251 E-score.
Consider CACGGTAA, for which the binding signal amounted to 0.126 E-score.
As for CTACCAAA, the binding signal is -0.0864 E-score.
For the sequence TATCCGGA, the binding signal came to 0.0271 E-score.
The figure for CGTTTAAG is -0.137 E-score; for CATAGTGG it is 0.0376 E-score; for CAAGCTCA it is -0.133 E-score.
The figure for ATCTCGAA is -0.0877 E-score; for CGTAAGGA it is -0.0566 E-score; for TATTATGA it is -0.118 E-score.
The figure for AGATGAAA is 0.0637 E-score; for GCCCCTAC it is 0.126 E-score.
Regarding AGCGCTAG, the binding signal was -0.105 E-score.
As for CTGGATTA, the figure is -0.0308 E-score; as for ATAATTGC, -0.258 E-score; as for GATGAAGA, -0.155 E-score.
As for CGGGCGTC, the figure is 0.113 E-score; as for CATTGGCA, -0.0295 E-score.
As for CTATGTGC, the figure is 0.039 E-score; as for GACAAGCA, -0.131 E-score; as for CTTCCTGC, -0.179 E-score.
Take AGGGAAAT: the binding signal is -0.18 E-score.
As to ACCATTGA, the binding signal stood at 0.107 E-score.
The figure for CTCGGATA is 0.188 E-score; for TCCGTAAA it is -0.0461 E-score.
For the sequence ACACACGC, the binding signal was 0.267 E-score.
GATATGGA: the binding signal is -0.027 E-score.
The figure for ATGTCGTC is -0.195 E-score; for CTCTTCCA it is 0.0295 E-score.
The figure for AACATGCA is -0.0914 E-score; for TGCGATAA it is -0.08 E-score; for CTTACTTA it is 0.0909 E-score.
The figure for CTTTATTA is -0.0483 E-score; for CTATCTCA it is 0.00567 E-score; for ACGTTACA it is 0.0994 E-score.
As to CACTCAAA, the binding signal is -0.0269 E-score.
With CAACGACA, the binding signal was determined as 0.197 E-score.
The figure for AAATCAAT is -0.326 E-score; for ATATTAAG it is -0.0737 E-score.
As for ACCTAGTA, the figure is 0.0107 E-score; as for CCAACGGA, -0.00157 E-score; as for CCAGTGCG, -0.087 E-score.
The figure for AAGGGTAC is 0.133 E-score; for GGGGCACA it is 0.146 E-score; for GAGGTACC it is -0.0384 E-score.
Take CGAGTAGA: the binding signal is -0.0697 E-score.
The figure for GCAGCAGC is 0.0239 E-score.
On to AGCGGCAC, for which the binding signal was determined as 0.0152 E-score.
For ATATCGAG, the binding signal was -0.0678 E-score.
As for ATCCACAT, the figure is -0.0528 E-score; as for ATGGGCCG, -0.0525 E-score; as for CGTAATTC, 0.0179 E-score.
As for ACTCATAT, the figure is -0.075 E-score; as for CTCATGAA, -0.248 E-score; as for ATTCTGGA, -0.164 E-score.
As for AAAAACTA, the binding signal was -0.197 E-score.
As for ATTGGCAG, the figure is -0.0192 E-score; as for CGCAGCGA, -0.0359 E-score; as for AGAGCGTA, -0.115 E-score.
As to GAGCGTGC, the binding signal amounted to 0.0379 E-score.
As for GTGTCCTA, the figure is 0.4 E-score; as for TACGAGAA, -0.239 E-score; as for ACCCGAGA, 0.175 E-score.
Consider ACACTGAG, for which the binding signal is 0.354 E-score.
As for GTGGGGCA, the figure is -0.00287 E-score.
As for TGCAGTAA, the figure is -0.191 E-score; as for ACAATGGT, -0.0225 E-score; as for AATCGTGT, 0.369 E-score.
As for AGCGACTC, the figure is 0.0748 E-score; as for AGCATCGA, -0.163 E-score.
Take AGCTCGTG: the binding signal was determined as 0.244 E-score.
The figure for AATGTAGT is -0.0425 E-score; for CCTTAACC it is 0.107 E-score.
The figure for AAACATGC is -0.216 E-score; for AGTATACC it is 0.12 E-score; for GCCTCACC it is -0.106 E-score.
As for AATGCTGG, the figure is -0.0701 E-score; as for GTCGTTCA, -0.0113 E-score; as for ATAGCCCC, -0.0273 E-score.
GCTGGTAA: the binding signal was -0.246 E-score.
GAGACTAC: the binding signal is -0.0403 E-score.
With GATCGTCC, the binding signal is -0.0133 E-score.
As for GTTCGATA, the figure is 0.0965 E-score.
The figure for CGAACATC is -0.0363 E-score.
The figure for ACATCGCG is 0.0672 E-score.
On to AATAGTGC, for which the binding signal is -0.13 E-score.
With ACCCCAAG, the binding signal came out at 0.2 E-score.
The figure for GCTTAGAC is 0.011 E-score; for AGATCAAG it is -0.0111 E-score.
As for AAGATCTA, the figure is -0.166 E-score; as for CCTTAACA, 0.0951 E-score.
The figure for CCCTACCG is 0.0488 E-score.
As for CCTGGAAC, the binding signal was 0.0383 E-score.
As for TAACTGAA, the figure is -0.0774 E-score; as for CTCCAGAC, -0.132 E-score; as for AATGCGTA, -0.036 E-score.
Regarding AACTGATA, the binding signal is 0.0627 E-score.
The figure for GTATATGA is 0.142 E-score.
The figure for AGCGACCT is -0.129 E-score; for CGATGCCC it is -0.143 E-score.
Regarding GAGTGCAC, the binding signal was 0.195 E-score.
As for AGCCATTC, the figure is -0.152 E-score; as for AACATCTT, -0.285 E-score.
AAGCCGAC: the binding signal is 0.00954 E-score.
As for CTCGCATC, the figure is -0.0723 E-score; as for GATAGGAC, -0.0518 E-score; as for ATTCAAAA, -0.0783 E-score.
As to TGCTTCAA, the binding signal was -0.12 E-score.
The figure for ACTTAAAT is -0.12 E-score; for GTGATTAA it is 0.042 E-score; for CTATCCTA it is -0.0172 E-score.
